Consider one molecule from publication PMC6975629 (Nano Letters, 2019).

Test [1] concerns the target T1, mCherry, isolated form (engineered mCherry (Discosoma sp. DsRed …)). The test can be described thus: SPR. (In general: Surface plasmon resonance follows binding to a sensor surface in real time, without labels.)
For test [2], the target named is T1, mCherry, isolated form. The test can be described thus: ITC. Background: Isothermal titration calorimetry measures the heat released or taken up as one component is titrated into another.

B1: VHH(WT), anti-mCherry VHH domain, isolated form (VHH)
VHH: QVQLVESGGSLVQPGGSLRLSCAASGRFAESSSMGWFRQAPGKEREFVAAISWSGGATNYADSAKGRFTLSRDNTKNTVYLQMNSLKPDDTAVYYCAANLGNYISSNQRLYGYWGQGTQVTVSS
Broadly, the Kd is the free concentration of one partner at which half of the binding sites on the other are occupied at equilibrium, for simple one-to-one binding. Lower therefore signals a tighter complex. The koff is the rate constant with which the complex falls apart. Lower therefore signals a long-lived complex. One may read the kon as the rate constant with which the complex forms. In test [1], B1 came in with a Kd of 163 nM, a koff of 0.00853 s⁻¹ and a kon of 52300 M⁻¹ s⁻¹. Moreover, in test [2], binding was characterised by a dissociation constant (Kd) of 69 nM and the dH was -5190 cal·mol^–1.
